Assay results published in paper PMC3398040.
Results are given in words; binding and its absence hold for the method and conditions named. Binding seen in cells or lysates may run through a third protein. Some results given as binding are weak or reduced against the parent protein; the word gives no strength. Where a sequence is shown, tags or fusion partners need not be part of it.

Key:
Conditions in all cases: remark: other sources report otherwise
[1] = target: T1, HIS-tagged Rpn1 (^HISRpn1) (yeast), P38764; experiment: co-IP; as a6 but yeast extract without GFP-Ho; immunoprecipitated with anti-myc, anti-GST or anti-HIS (Figure 4, - Ho)
T1 chain: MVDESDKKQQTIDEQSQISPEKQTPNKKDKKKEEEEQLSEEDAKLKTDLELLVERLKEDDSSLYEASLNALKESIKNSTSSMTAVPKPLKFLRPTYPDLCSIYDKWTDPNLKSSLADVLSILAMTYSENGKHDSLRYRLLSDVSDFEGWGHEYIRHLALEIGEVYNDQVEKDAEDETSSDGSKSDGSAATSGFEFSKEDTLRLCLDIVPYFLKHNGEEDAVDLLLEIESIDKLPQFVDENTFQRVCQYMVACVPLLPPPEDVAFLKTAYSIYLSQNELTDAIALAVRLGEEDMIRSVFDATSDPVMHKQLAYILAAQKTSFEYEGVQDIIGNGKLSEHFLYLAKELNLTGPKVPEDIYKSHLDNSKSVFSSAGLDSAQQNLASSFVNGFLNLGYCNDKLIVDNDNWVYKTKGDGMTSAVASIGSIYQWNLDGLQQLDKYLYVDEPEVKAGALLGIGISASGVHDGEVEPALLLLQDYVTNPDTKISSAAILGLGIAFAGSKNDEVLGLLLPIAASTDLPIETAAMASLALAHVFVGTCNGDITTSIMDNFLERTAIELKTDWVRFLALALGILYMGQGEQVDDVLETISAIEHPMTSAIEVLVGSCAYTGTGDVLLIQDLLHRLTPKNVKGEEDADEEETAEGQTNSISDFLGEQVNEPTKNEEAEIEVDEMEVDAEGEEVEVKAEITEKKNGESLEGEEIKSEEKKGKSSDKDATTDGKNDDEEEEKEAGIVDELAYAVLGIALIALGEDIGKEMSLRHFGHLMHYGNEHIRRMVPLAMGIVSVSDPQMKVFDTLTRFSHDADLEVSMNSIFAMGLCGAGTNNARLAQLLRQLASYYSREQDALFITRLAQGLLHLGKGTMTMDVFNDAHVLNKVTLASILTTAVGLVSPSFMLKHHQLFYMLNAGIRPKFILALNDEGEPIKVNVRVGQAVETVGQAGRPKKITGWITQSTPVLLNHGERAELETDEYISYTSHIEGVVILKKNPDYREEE

[2] = target: T1, HIS-tagged Rpn1 (^HISRpn1) (yeast), …; experiment: co-IP; bacterial lysates with HIS-Rpn1 and GST-Ufo1 mixed with yeast extract with myc-Cdc53 and GFP-Ho; aliquots immunoprecipitated with anti-myc, anti-GFP, anti-GST or anti-HIS and Protein A beads (Figure 4, + Ho)
[3] = target: T2, GST-tagged Rpn1 (^GSTRpn1) (yeast), P38764; experiment: pull-down; GST-Rpn1, GST-Rpn10 or GST on GSH beads incubated with yeast extract with myc-Cdc53 and GFP-Ho mixed with bacterial lysate with HIS-Ufo1 (Figure 3B); only the target purified
T2 chain: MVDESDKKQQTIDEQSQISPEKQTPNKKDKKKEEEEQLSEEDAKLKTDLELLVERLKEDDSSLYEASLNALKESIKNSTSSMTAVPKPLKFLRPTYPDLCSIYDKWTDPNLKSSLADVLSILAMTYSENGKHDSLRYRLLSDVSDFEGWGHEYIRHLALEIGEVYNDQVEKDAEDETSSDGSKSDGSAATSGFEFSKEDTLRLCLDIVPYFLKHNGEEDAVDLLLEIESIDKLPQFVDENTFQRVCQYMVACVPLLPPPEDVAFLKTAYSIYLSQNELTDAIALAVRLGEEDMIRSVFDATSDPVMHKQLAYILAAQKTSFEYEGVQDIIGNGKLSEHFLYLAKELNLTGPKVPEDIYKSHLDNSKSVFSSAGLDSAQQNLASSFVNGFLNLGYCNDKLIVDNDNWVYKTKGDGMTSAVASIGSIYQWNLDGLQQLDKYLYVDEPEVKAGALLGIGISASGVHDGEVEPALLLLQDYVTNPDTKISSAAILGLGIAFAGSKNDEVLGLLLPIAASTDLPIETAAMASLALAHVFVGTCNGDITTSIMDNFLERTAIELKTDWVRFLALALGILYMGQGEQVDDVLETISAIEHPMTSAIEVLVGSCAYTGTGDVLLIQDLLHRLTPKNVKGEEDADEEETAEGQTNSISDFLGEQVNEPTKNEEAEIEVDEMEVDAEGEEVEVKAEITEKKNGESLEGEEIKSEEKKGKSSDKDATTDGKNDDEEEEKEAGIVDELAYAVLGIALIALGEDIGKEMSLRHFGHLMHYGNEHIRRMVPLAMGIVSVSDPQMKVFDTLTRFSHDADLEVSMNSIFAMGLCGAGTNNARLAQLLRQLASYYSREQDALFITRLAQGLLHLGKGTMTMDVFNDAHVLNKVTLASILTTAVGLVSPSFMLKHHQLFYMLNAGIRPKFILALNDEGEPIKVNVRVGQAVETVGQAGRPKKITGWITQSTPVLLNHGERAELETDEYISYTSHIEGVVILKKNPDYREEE

[4] = target: T3, HIS-tagged Ddi1 (^HISDdi1) (yeast), P40087; experiment: pull-down; HIS-Ddi1 or HIS-ΔΔDdi1 on Ni beads incubated with a constant amount of GFP-Ufo1 yeast extract and x3 the amount of GST-Rpn1 lysate (Figure 5B); only the target purified
T3 chain: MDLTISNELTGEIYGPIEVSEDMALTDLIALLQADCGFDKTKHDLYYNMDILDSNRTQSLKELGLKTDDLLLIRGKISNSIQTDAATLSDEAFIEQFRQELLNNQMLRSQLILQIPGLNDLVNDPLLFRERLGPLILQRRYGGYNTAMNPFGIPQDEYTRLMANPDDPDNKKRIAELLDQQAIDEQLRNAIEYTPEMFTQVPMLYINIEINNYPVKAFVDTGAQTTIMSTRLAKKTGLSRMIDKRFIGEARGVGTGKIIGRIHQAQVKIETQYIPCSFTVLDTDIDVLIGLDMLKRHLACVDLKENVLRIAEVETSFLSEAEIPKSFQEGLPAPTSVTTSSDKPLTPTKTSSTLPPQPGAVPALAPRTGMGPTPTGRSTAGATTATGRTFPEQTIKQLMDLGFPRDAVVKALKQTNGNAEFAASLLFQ

[5] = target: T3, HIS-tagged Ddi1 (^HISDdi1) (yeast), …; experiment: pull-down; HIS-Ddi1 on Ni beads incubated with one lysate or extract alone (GST-Rpn1 or GST-Ufo1 bacterial lysate, GFP-Ho or GFP-Ufo1 yeast extract); washed with 2.5% Triton X100 and 100 mM imidazole (Figure 5A lanes 4-6, Figure 5B lanes 3 and 4); only the target purified
[6] = target: T3, HIS-tagged Ddi1 (^HISDdi1) (yeast), …; experiment: pull-down; HIS-Ddi1 on Ni beads incubated with GST-Ufo1 and/or GST-Rpn1 lysate together with yeast extract with ubiquitylated GFP-Ho (Figure 5A lanes 8-10); only the target purified
[7] = target: T3, HIS-tagged Ddi1 (^HISDdi1) (yeast), …; experiment: pull-down; HIS-Ddi1 on Ni beads incubated with Ufo1 (GST-Ufo1 lysate or GFP-Ufo1 extract) together with GST-Rpn1 lysate at x1 or x2, no Ho (Figure 5A lane 7, Figure 5B lanes 5 and 6, Figure 5C); only the target purified

Measured: binding

B1: endogenous Ddi1, P40087 1-428 (protein)
chain: MDLTISNELTGEIYGPIEVSEDMALTDLIALLQADCGFDKTKHDLYYNMDILDSNRTQSLKELGLKTDDLLLIRGKISNSIQTDAATLSDEAFIEQFRQELLNNQMLRSQLILQIPGLNDLVNDPLLFRERLGPLILQRRYGGYNTAMNPFGIPQDEYTRLMANPDDPDNKKRIAELLDQQAIDEQLRNAIEYTPEMFTQVPMLYINIEINNYPVKAFVDTGAQTTIMSTRLAKKTGLSRMIDKRFIGEARGVGTGKIIGRIHQAQVKIETQYIPCSFTVLDTDIDVLIGLDMLKRHLACVDLKENVLRIAEVETSFLSEAEIPKSFQEGLPAPTSVTTSSDKPLTPTKTSSTLPPQPGAVPALAPRTGMGPTPTGRSTAGATTATGRTFPEQTIKQLMDLGFPRDAVVKALKQTNGNAEFAASLLFQ
binds: [1] | [2] | [3]

B2: GST-tagged Rpn1 (^GSTRpn1), P38764 1-993 (protein)
chain: MVDESDKKQQTIDEQSQISPEKQTPNKKDKKKEEEEQLSEEDAKLKTDLELLVERLKEDDSSLYEASLNALKESIKNSTSSMTAVPKPLKFLRPTYPDLCSIYDKWTDPNLKSSLADVLSILAMTYSENGKHDSLRYRLLSDVSDFEGWGHEYIRHLALEIGEVYNDQVEKDAEDETSSDGSKSDGSAATSGFEFSKEDTLRLCLDIVPYFLKHNGEEDAVDLLLEIESIDKLPQFVDENTFQRVCQYMVACVPLLPPPEDVAFLKTAYSIYLSQNELTDAIALAVRLGEEDMIRSVFDATSDPVMHKQLAYILAAQKTSFEYEGVQDIIGNGKLSEHFLYLAKELNLTGPKVPEDIYKSHLDNSKSVFSSAGLDSAQQNLASSFVNGFLNLGYCNDKLIVDNDNWVYKTKGDGMTSAVASIGSIYQWNLDGLQQLDKYLYVDEPEVKAGALLGIGISASGVHDGEVEPALLLLQDYVTNPDTKISSAAILGLGIAFAGSKNDEVLGLLLPIAASTDLPIETAAMASLALAHVFVGTCNGDITTSIMDNFLERTAIELKTDWVRFLALALGILYMGQGEQVDDVLETISAIEHPMTSAIEVLVGSCAYTGTGDVLLIQDLLHRLTPKNVKGEEDADEEETAEGQTNSISDFLGEQVNEPTKNEEAEIEVDEMEVDAEGEEVEVKAEITEKKNGESLEGEEIKSEEKKGKSSDKDATTDGKNDDEEEEKEAGIVDELAYAVLGIALIALGEDIGKEMSLRHFGHLMHYGNEHIRRMVPLAMGIVSVSDPQMKVFDTLTRFSHDADLEVSMNSIFAMGLCGAGTNNARLAQLLRQLASYYSREQDALFITRLAQGLLHLGKGTMTMDVFNDAHVLNKVTLASILTTAVGLVSPSFMLKHHQLFYMLNAGIRPKFILALNDEGEPIKVNVRVGQAVETVGQAGRPKKITGWITQSTPVLLNHGERAELETDEYISYTSHIEGVVILKKNPDYREEE
binds: [4] | [5] | [6] | [7]
